# From the supplement of paper PMC8728848
# This is one part of the list.
# B1: UDA (Urtica dioica), P11218 (protein)
# chain: MMMRFLSAVVIMSSAMAVGLVSAQRCGSQGGGGTCPALWCCSIWGWCGDSEPYCGRTCENKCWSGERSDHRCGAAVGNPPCGQDRCCSVHGWCGGGNDYCSGSKCQYRCSSSVRGPRVALSGNSTANSIGNVVVTEPLFDQMFSHRKDCPSQGFYSYHSFLVAAESFPAFGTIGDVATRKREVAAFLAHISQATSGERSDVENPHAWGLCHINTTTVTENDFCTSSDWPCAAGKKYSPRGPIQLTHNFNYGLAGQAIGEDLIQNPDLVEKDPIISFKTALWFWMSQHDNKPSCHDIVLNANSAANRIPNKGVIGNIISRAFGHDDFAVRSSSIGFYKRYCDMLGVSYGHDLKYWFDNTPSSEFQRIQMRVAA
# Experiments:
# Assay in all cases: glycan array binding signal (z-score within array); higher = stronger binding
# Details in all cases: glycan notation: IUPAC condensed, linker removed
# Gal6S(b1-3)GlcNAc = target: Gal6S(b1-3)GlcNAc
# Procedure, shortened: (§1)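 The binding signal is a Z-score computed within each array. Data were drawn from 3228 arrays in the Consortium for Functional Glycomics database, restricted to those with a known protein sequence. Scores were averaged over arrays of the same protein sequence at different concentrations or buffers, and over linkers, and negative values can be taken as non-binding.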
# Gal6S(b1-3)GlcNAc6S = target: Gal6S(b1-3)GlcNAc6S
# Procedure, shortened: as §1
# Gal6S(b1-4)Glc = target: Gal6S(b1-4)Glc
# Procedure, shortened: as §1
# Gal6S(b1-4)Glc6S = target: Gal6S(b1-4)Glc6S
# Procedure, shortened: as §1
# Gal6S(b1-4)GlcNAc = target: Gal6S(b1-4)GlcNAc
# Procedure, shortened: as §1
# Gal6S(b1-4)GlcNAc6S = target: Gal6S(b1-4)GlcNAc6S
# Procedure, shortened: as §1
# GalNAc(a1-3)Gal = target: GalNAc(a1-3)Gal
# Procedure, shortened: as §1
# GalNAc(a1-3)GalNAc = target: GalNAc(a1-3)GalNAc
# Procedure, shortened: as §1
# [1] = target: GalNAc(a1-3)GalNAc(b1-3)Gal(a1-4)Gal(b1-4)Glc
# Procedure, shortened: as §1
# [2] = target: GalNAc(a1-3)GalNAc(b1-3)Gal(a1-4)Gal(b1-4)GlcNAc
# Procedure, shortened: as §1
# GalNAc(b1-3)Gal = target: GalNAc(b1-3)Gal
# Procedure, shortened: as §1
# [3] = target: GalNAc(b1-3)Gal(a1-4)Gal(b1-4)GlcNAc
# Procedure, shortened: as §1
# [4] = target: GalNAc(b1-3)Gal(a1-4)Gal(b1-4)GlcNAc(b1-3)Gal(b1-4)Glc
# Procedure, shortened: as §1
# [5] = target: GalNAc(b1-3)Gal(a1-6)Gal(b1-4)Glc
# Procedure, shortened: as §1
# GalNAc(b1-3)GalNAc = target: GalNAc(b1-3)GalNAc
# Procedure, shortened: as §1
# GalNAc(b1-3)GlcNAc = target: GalNAc(b1-3)GlcNAc
# Procedure, shortened: as §1
# GalNAc(b1-4)Gal(b1-4)Glc = target: GalNAc(b1-4)Gal(b1-4)Glc
# Procedure, shortened: as §1
# GalNAc(b1-4)GlcNAc = target: GalNAc(b1-4)GlcNAc
# Procedure, shortened: as §1
# [6] = target: GalNAc(b1-4)GlcNAc(b1-2)Man
# Procedure, shortened: as §1
# [7] = target: GalNAc(b1-4)GlcNAc(b1-2)Man(a1-3)[GalNAc(b1-4)GlcNAc(b1-2)Man(a1-6)]Man(b1-4)GlcNAc(b1-4)GlcNAc
# Procedure, shortened: as §1
# [8] = target: GalNAc(b1-4)GlcNAc(b1-3)GalNAc(b1-4)GlcNAc
# Procedure, shortened: as §1
# GalNAc(b1-4)GlcNAc6S = target: GalNAc(b1-4)GlcNAc6S
# Procedure, shortened: as §1
# GalNAc(b1-6)GalNAc = target: GalNAc(b1-6)GalNAc
# Procedure, shortened: as §1
# GalNAc3S(b1-4)GlcNAc = target: GalNAc3S(b1-4)GlcNAc
# Procedure, shortened: as §1
# GalNAc3S(b1-4)GlcNAc3S = target: GalNAc3S(b1-4)GlcNAc3S
# Procedure, shortened: as §1
# [9] = target: GalNAc3S(b1-4)[Fuc(a1-3)]GlcNAc
# Procedure, shortened: as §1
# GalNAc4S6S(b1-4)GlcNAc = target: GalNAc4S6S(b1-4)GlcNAc
# Procedure, shortened: as §1
# GalNAc6S(b1-4)GlcNAc = target: GalNAc6S(b1-4)GlcNAc
# Procedure, shortened: as §1
# Glc(a1-4)Glc = target: Glc(a1-4)Glc
# Procedure, shortened: as §1
# [10] = target: Glc(a1-4)Glc(a1-4)Glc(a1-4)Glc
# Procedure, shortened: as §1
# Glc(a1-6)Glc(a1-6)Glc = target: Glc(a1-6)Glc(a1-6)Glc
# Procedure, shortened: as §1
# [11] = target: Glc(a1-6)Glc(a1-6)Glc(a1-6)Glc
# Procedure, shortened: as §1
# Glc(b1-4)Glc = target: Glc(b1-4)Glc
# Procedure, shortened: as §1
# Glc(b1-6)Glc = target: Glc(b1-6)Glc
# Procedure, shortened: as §1
# GlcA(b1-3)Gal = target: GlcA(b1-3)Gal
# Procedure, shortened: as §1
# GlcA(b1-3)GlcNAc = target: GlcA(b1-3)GlcNAc
# Procedure, shortened: as §1
# GlcA(b1-6)Gal = target: GlcA(b1-6)Gal
# Procedure, shortened: as §1
# [12] = target: GlcA3S(b1-3)Gal(b1-4)GlcNAc(b1-2)Man
# Procedure, shortened: as §1
# [13] = target: GlcA3S(b1-3)Gal(b1-4)GlcNAc(b1-3)Gal(b1-4)Glc
# Procedure, shortened: as §1
# [14] = target: GlcNAc(a1-3)Gal(b1-4)GlcNAc
# Procedure, shortened: as §1
# [15] = target: GlcNAc(a1-4)Gal(b1-3)GlcNAc
# Procedure, shortened: as §1
# [16] = target: GlcNAc(a1-4)Gal(b1-4)GalNAc
# Procedure, shortened: as §1
# [17] = target: GlcNAc(a1-4)Gal(b1-4)GlcNAc
# Procedure, shortened: as §1
# [18] = target: GlcNAc(a1-4)Gal(b1-4)GlcNAc(b1-3)Gal(b1-4)Glc
# Procedure, shortened: as §1
# [19] = target: GlcNAc(a1-4)Gal(b1-4)GlcNAc(b1-3)Gal(b1-4)GlcNAc
# Procedure, shortened: as §1
binder,measurement,setting,value
B1,glycan array binding signal (z-score),Gal6S(b1-3)GlcNAc,-0.184
same,glycan array binding signal (z-score),Gal6S(b1-3)GlcNAc6S,-0.181
same,glycan array binding signal (z-score),Gal6S(b1-4)Glc,-0.188
same,glycan array binding signal (z-score),Gal6S(b1-4)Glc6S,-0.182
same,glycan array binding signal (z-score),Gal6S(b1-4)GlcNAc,-0.18
same,glycan array binding signal (z-score),Gal6S(b1-4)GlcNAc6S,-0.177
same,glycan array binding signal (z-score),GalNAc(a1-3)Gal,-0.19
same,glycan array binding signal (z-score),GalNAc(a1-3)GalNAc,-0.191
same,glycan array binding signal (z-score),[1],-0.179
same,glycan array binding signal (z-score),[2],-0.177
same,glycan array binding signal (z-score),GalNAc(b1-3)Gal,-0.174
same,glycan array binding signal (z-score),[3],-0.139
same,glycan array binding signal (z-score),[4],-0.166
same,glycan array binding signal (z-score),[5],-0.176
same,glycan array binding signal (z-score),GalNAc(b1-3)GalNAc,-0.181
same,glycan array binding signal (z-score),GalNAc(b1-3)GlcNAc,-0.185
same,glycan array binding signal (z-score),GalNAc(b1-4)Gal(b1-4)Glc,-0.176
same,glycan array binding signal (z-score),GalNAc(b1-4)GlcNAc,0.054
same,glycan array binding signal (z-score),[6],-0.181
same,glycan array binding signal (z-score),[7],-0.111
same,glycan array binding signal (z-score),[8],-0.05
same,glycan array binding signal (z-score),GalNAc(b1-4)GlcNAc6S,0.203
same,glycan array binding signal (z-score),GalNAc(b1-6)GalNAc,-0.11
same,glycan array binding signal (z-score),GalNAc3S(b1-4)GlcNAc,0.062
same,glycan array binding signal (z-score),GalNAc3S(b1-4)GlcNAc3S,-0.187
same,glycan array binding signal (z-score),[9],-0.177
same,glycan array binding signal (z-score),GalNAc4S6S(b1-4)GlcNAc,-0.188
same,glycan array binding signal (z-score),GalNAc6S(b1-4)GlcNAc,-0.185
same,glycan array binding signal (z-score),Glc(a1-4)Glc,-0.183
same,glycan array binding signal (z-score),[10],-0.176
same,glycan array binding signal (z-score),Glc(a1-6)Glc(a1-6)Glc,-0.168
same,glycan array binding signal (z-score),[11],-0.173
same,glycan array binding signal (z-score),Glc(b1-4)Glc,-0.182
same,glycan array binding signal (z-score),Glc(b1-6)Glc,-0.186
same,glycan array binding signal (z-score),GlcA(b1-3)Gal,-0.173
same,glycan array binding signal (z-score),GlcA(b1-3)GlcNAc,-0.171
same,glycan array binding signal (z-score),GlcA(b1-6)Gal,-0.167
same,glycan array binding signal (z-score),[12],-0.183
same,glycan array binding signal (z-score),[13],-0.179
same,glycan array binding signal (z-score),[14],0.03
same,glycan array binding signal (z-score),[15],-0.173
same,glycan array binding signal (z-score),[16],-0.171
same,glycan array binding signal (z-score),[17],0.188
same,glycan array binding signal (z-score),[18],-0.172
same,glycan array binding signal (z-score),[19],0.098
